# According to PubChem BioAssay AID218 (DTP/NCI, 2004):
# A number of entries come with more than one value. This is not the full list of results. The source may hold further records. The records of an entry are repeats in other runs, samples, wells, individuals or studies.
# Tested on: C57BL/6 mice, Adenocarcinoma 755 sc, tumor weight T/C
# Assay: NCI In Vivo Anticancer Drug Screen. Data for tumor model Adenocarcinoma 755 (subcutaneous) in C57BL/6 mice
# Details: endpoint: mean tumor weight, higher = larger tumour
# Description: The antitumor activity of compounds was measured in mice bearing transplantable tumors. Survival or tumor size were measured and the results are expressed as the measurement made in the treated group (T) divided by the measurement made in the vehicle treated control group (C). The tumor model used in this assay is Adenocarcinoma 755 (subcutaneous) in C57BL/6 mice
smiles,measurement,setting,value
CCc1c(CC(=O)O)c2cc(C)ccc2n1Cc1ccc(Cl)cc1,T/C,"dose: 12.5 mg/kg/injection, schedule: Q01DX011 (ip), vehicle: saline",40 % of control and 91 % of control
Nc1ncnc2[nH]ncc12,T/C,"dose: 10.0 mg/kg/injection, schedule: Q01DX011 (ip), vehicle: saline",2 % of control and 29 % of control
CC(=O)OCC(=O)[C@@]1(O)CC[C@H]2[C@@H]3CCC4=CC(=O)CC[C@]4(C)[C@H]3C(=O)C[C@@]21C,T/C,"dose: 30.0 mg/kg/injection, schedule: Q01DX011 (sc), vehicle: saline",38 % of control and 69 % of control
Cc1ncc(CO)c(C)c1O,T/C,"dose: 75.0 mg/kg/injection, schedule: Q01DX011 (ip), vehicle: saline",78 % of control and 112 % of control
Nc1nc2n[nH]nc2c(=O)[nH]1,T/C,"dose: 75.0 mg/kg/injection, schedule: Q01DX007 (sc), vehicle: carboxymethylcellulose (CMC)",3 % of control and 34 % of control
C1CN1c1nc(N2CC2)nc(N2CC2)n1,T/C,"dose: 0.25 mg/kg/injection, schedule: Q01DX011 (ip), vehicle: saline",10 % of control and 42 % of control
C=CC(COC(C)=O)N1CC1 (stereo not given),T/C,"dose: 15.0 mg/kg/injection, schedule: Q01DX011 (oral), vehicle: saline",64 % of control and 100 % of control
same,T/C,"dose: 30.0 mg/kg/injection, schedule: Q01DX011 (oral), vehicle: saline",10 % of control and 46 % of control
S=c1nc[nH]c2nc[nH]c12,T/C,"dose: 5.0 mg/kg/injection, schedule: Q01DX011 (ip), vehicle: carboxymethylcellulose (CMC)",2 % of control and 30 % of control
CNC=O,T/C,"dose: 150.0 mg/kg/injection, schedule: Q01DX011 (ip), vehicle: saline","40 % of control, 73 % of control, 108 % of control"
